Data on 48 compounds can be found in PubChem BioAssay AID1963576 (National Center for Advancing Translational Sciences (NCATS), 2024).

SMILES strings stand for the structures. In all, about 46,000 compounds went through this assay and about 60 (0.1%) were called active. Roughly 3% stayed inconclusive and do not appear here. Calls follow the shape of the dose curve; as a rule, active = well fitted inhibition curve with a large enough effect; inconclusive = small, poorly fitted or top-dose-only effect; inactive = no such curve, though single readings can be large or run the other way. Some of the results follow.

This assay can be described thus: Primary qHTS assay for Inhibitors of ovarian cancer metastasis using an organotypic tumor microenvironment (TME) model. Also: nearly all actives have a fitted effect of over 65% in size.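 As to activity change, negative = inhibition: plate controls were DMSO wells for no effect and tomatine positive control wells for full effect.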 To be noted: SKOV3ip1-GFP adhesion/invasion on 3D omental model, fluorescence; series mostly up to 45.8 µM; activity change, negative = inhibition: at the top concentration. The essentials:
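A 3D layer of primary human omental fibroblasts, mesothelial cells, fibronectin and collagen I, grown 48 hr, received SKOV3ip1-GFP cells in serum-free medium plus compounds at 0.36-46 umol/L. After 2 hr RT and 16 hr 37 C, fixed adherent GFP cells were counted; normalized to DMSO and tomatine.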
With `O=C(Nc1ccc(F)cc1Cl)n1ncc2cc(Cl)ccc21`, the “activity change, negative = inhibition” value is inactive: 0.574%. Same read-out and setting: as for `CC1=C(C(=O)Nc2ccc(C)cc2C)C(c2ccc(O)cc2)n2nnnc2N1` (stereo not drawn), the figure is inactive: 26.2%; as for `CCc1ccc(NC(=O)CSC2=Nc3ccccc3C3=NC(CCC(=O)NCCc4ccccc4)C(=O)N23)cc1` (stereo not drawn), inactive: 8.78%. On the same count and under the same terms, as for `COc1ccc(/C=C\c2onc(C)c2S(=O)(=O)N2CCC(C(=O)Nc3ccc(C)cc3C)CC2)cc1`, the figure is inactive: 1.96%; as for `CCC12CN3CC(C)(CN(C1)C3c1c[nH]c3ccccc13)C2=O` (stereo not drawn), inactive: 1.54%.

On to `CCS(=O)(=O)c1ncc(N(Cc2ccco2)Cc2sccc2C)c(C(=O)Nc2ccc(C)cc2C)n1`, for which the “activity change, negative = inhibition” value is inactive: 1.75%.

As to `CCCOc1ccc(C(=O)Nc2cccc(NC(=O)c3cccc(Cl)c3)c2)cc1`, the “activity change, negative = inhibition” value was inactive: 1.98%. In the case of `Cc1ccc(CNC(=O)CCc2c(C)nc3nc(CNC(=O)OC(C)(C)C)nn3c2C)cc1`, the “activity change, negative = inhibition” value is inactive: -4.03%. On the same count and under the same terms, as for `CC(C)c1ccc(-c2nnc3n(CCc4ccccc4)c(=O)c4ccccc4n23)cc1`, the figure is inactive: -0.272%; as for `CC(=O)c1ccc(NS(=O)(=O)c2cc(-c3cc(C)no3)ccc2C)cc1`, inactive: 3.19%. As to `CCCNC(=O)CCNS(=O)(=O)c1ccc2c(c1)c(=O)n(C)c(=O)n2C`, the result was inactive. Regarding `CCC(=O)N1CCc2cc(S(=O)(=O)NCCC(=O)Nc3ccc(C)cc3)ccc21`, the “activity change, negative = inhibition” value was inactive: 9.66%. Turning to `O=C(COc1ccccc1-c1nnc(-c2ccccc2)o1)Nc1ccc(Br)cc1F`, the “activity change, negative = inhibition” value was inactive: -5.85%.

On to `CC(=O)c1cccc(Nc2ccc3cc(S(=O)(=O)N4CCC(C)CC4)ccc3n2)c1`, for which the “activity change, negative = inhibition” value was inactive: 1.29%. Same read-out and setting: with `COc1cc(C(=O)n2nc(-c3ccco3)nc2NCc2ccc(Cl)cc2)cc(OC)c1OC` the figure was inactive: 23.6%. Still for that read-out and setting: as for `COc1ccc(NC(=O)c2c(C)oc3ccc(O)c(CN4CCCC4)c23)cc1Cl`, the figure is inactive: 20.4%; as for `Cc1cccc(NCc2nc3ccccc3n2CCOc2ccccc2C)c1`, inactive: -14.5%; as for `CCSc1ncc(Cl)c(C(=O)Nc2c(C(=O)Nc3cccc(C)c3)oc3ccccc23)n1`, inactive: -14.3%. The same measure, in the same setting: as for `Cc1ccc2nc(-c3ccc(Cl)cc3)cc(C(=O)OCC(=O)c3ccccc3)c2c1`, the figure is inactive: 0.673%. With `COc1ccccc1OCC(=O)Nc1nc2c(s1)CC(C)CC2` (stereo not drawn), the “activity change, negative = inhibition” value is inactive: -5.23%. Regarding `Cc1cccc(-c2nc(CSc3nncn4c3cc3oc(C)cc34)c(C)o2)c1`, the “activity change, negative = inhibition” value is inactive: -10.5%. Still for that read-out and setting: with `COc1ccc(C(=O)NCC(c2ccc(N(C)C)cc2)N2CCCC2)c(OC)c1` (stereo not drawn) the figure was inactive: 17.8%; with `CCC(Cn1nnc2ccccc2c1=O)NC(=O)Nc1ccc(C)cc1C` (stereo not drawn), inactive: -3.97%. In the case of `CCC(C(=O)NC1CCCCC1)n1c(SCc2ccc(F)cc2)nc2ccncc21` (stereo not drawn), the call was inactive. With `CC1CCC(NC(=O)C2(C)Cc3ccccc3C(=O)N2Cc2ccc(F)cc2)CC1` (stereo not drawn), the “activity change, negative = inhibition” value was inactive: -6.58%.

In the case of `COc1ccc(C(=O)NCCc2sc(-c3ccc(F)cc3)nc2C)cc1OC`, the “activity change, negative = inhibition” value was inactive: 7.72%. As to `CCc1ccc(C2Sc3ccccc3NC3=C2C(=O)c2ccccc23)cc1` (stereo not drawn), the “activity change, negative = inhibition” value is inactive: 2%.

On to `Cc1ccc(C2c3[nH]c4ccccc4c3CCN2C(=O)Nc2ccc(C)c(C)c2)cc1` (stereo not drawn), for which the “activity change, negative = inhibition” value is inactive: 6.91%.

Regarding `CCOc1ccccc1C(=O)NCc1ccc2c(c1)CCN2C(C)=O`, the “activity change, negative = inhibition” value is inactive: -25.6%.

In the case of `COc1ccc(C2(CNC(=O)C(=O)Nc3cccc(C(F)(F)F)c3)CCCC2)cc1OC`, the “activity change, negative = inhibition” value is inactive: 1.94%. On the same count and under the same terms, with `Cc1cccc(NC(=O)C2CCCN(S(=O)(=O)c3cccc4nonc34)C2)c1` (stereo not drawn) the figure was inactive: 25.2%. The same measure, in the same setting: as for `CC(=O)c1cccc(NC(=O)c2nc(-c3ccc(C)cc3)n3c2CCCCC3)c1`, the figure is inactive: -1.16%; as for `O=C(NCCc1ccc(Cl)cc1)c1ccc(CSCc2ccccc2Cl)o1`, inactive: 22.9%; as for `Cc1ccc(NC(=O)C(=O)NCc2ccc(Cl)cc2)cc1`, inactive: -1.04%. Consider `CCOC(=O)C(C)Sc1nnc2ccc3ccccc3n12` (stereo not drawn), for which the outcome was inactive. As to `Cc1ccc(S(=O)(=O)Nc2cccc(-c3ccc(N4CCCCC4)nn3)c2)s1`, the “activity change, negative = inhibition” value is inactive: -1.27%. Same read-out and setting: with `Nc1cc(=O)nc(SCC(=O)Nc2ccc(F)cc2)n1-c1ccc(Cl)cc1` the figure was inactive: 1.07%; with `Cc1oc(-c2cccc(Cl)c2)nc1CN1CCC(C(=O)NCCCN2CCN(c3cccc(Cl)c3)CC2)CC1`, inactive: 0.627%.

For the compound `CCOc1ccc(NC(=O)N(Cc2c[nH]c3ccccc23)C2CCCCC2)cc1`, the call was inactive.

As for `COc1cc(OC)c(NC(=O)CCn2cnc3onc(-c4ccc(F)cc4)c3c2=O)cc1Cl`, the compound was called inactive. As for `CCCCNC(=O)c1[nH]c2ccccc2c1Sc1ccc(C)cc1`, the “activity change, negative = inhibition” value was inactive: 15.1%. On the same count and under the same terms, as for `Cc1ccc(CNCc2c(C(=O)O)n(Cc3ccccc3C)c3cc(C)ccc23)cc1`, the figure is inactive: -8.55%; as for `CCC[C@@H]1C[C@@H](C(=O)N[C@@H]([C@H]2O[C@H](SC)[C@H](O)[C@@H](O)[C@H]2O)[C@@H](C)O)N(C)C1`, inactive: 4.07%.

With `CCc1ccc(NC(=O)CSc2nccn2C2CCCC2)cc1`, the “activity change, negative = inhibition” value was inactive: -12.6%. For `Cc1ccc(C)c(S(=O)(=O)c2cnc(SCC(=O)Nc3ccc(F)cc3F)[nH]c2=O)c1`, the “activity change, negative = inhibition” value is inactive: -1.89%. Turning to `Cc1cc(=O)n(CC(=O)NCCC(C)C)c2c1c(C)nn2C`, the “activity change, negative = inhibition” value was inactive: 6.05%. Same read-out and setting: with `Cn1cc(S(=O)(=O)N2CCCCC2)cc1C(=O)N1CCN(c2ccc(F)cc2)CC1` the figure was inactive: 8.73%. In the case of `Cc1ccc2c(c1)c(=O)c(C(=O)c1ccncc1)cn2CC(=O)Nc1c(C)cccc1C`, the outcome was inactive.
